Hit rate of the full screen: of about 310,000 compounds, about 2,200 (0.71%) showed an effect of 50% or more. The effect is printed as a negative number. The list shows a part of the results.
target: human ether-à-go-go-related gene (hERG) potassium channel (human, UniProt Q12809); assay: primary screen, population patch clamp on CHO cells stably expressing hERG
Sequence (Q12809 whole entry, looked up): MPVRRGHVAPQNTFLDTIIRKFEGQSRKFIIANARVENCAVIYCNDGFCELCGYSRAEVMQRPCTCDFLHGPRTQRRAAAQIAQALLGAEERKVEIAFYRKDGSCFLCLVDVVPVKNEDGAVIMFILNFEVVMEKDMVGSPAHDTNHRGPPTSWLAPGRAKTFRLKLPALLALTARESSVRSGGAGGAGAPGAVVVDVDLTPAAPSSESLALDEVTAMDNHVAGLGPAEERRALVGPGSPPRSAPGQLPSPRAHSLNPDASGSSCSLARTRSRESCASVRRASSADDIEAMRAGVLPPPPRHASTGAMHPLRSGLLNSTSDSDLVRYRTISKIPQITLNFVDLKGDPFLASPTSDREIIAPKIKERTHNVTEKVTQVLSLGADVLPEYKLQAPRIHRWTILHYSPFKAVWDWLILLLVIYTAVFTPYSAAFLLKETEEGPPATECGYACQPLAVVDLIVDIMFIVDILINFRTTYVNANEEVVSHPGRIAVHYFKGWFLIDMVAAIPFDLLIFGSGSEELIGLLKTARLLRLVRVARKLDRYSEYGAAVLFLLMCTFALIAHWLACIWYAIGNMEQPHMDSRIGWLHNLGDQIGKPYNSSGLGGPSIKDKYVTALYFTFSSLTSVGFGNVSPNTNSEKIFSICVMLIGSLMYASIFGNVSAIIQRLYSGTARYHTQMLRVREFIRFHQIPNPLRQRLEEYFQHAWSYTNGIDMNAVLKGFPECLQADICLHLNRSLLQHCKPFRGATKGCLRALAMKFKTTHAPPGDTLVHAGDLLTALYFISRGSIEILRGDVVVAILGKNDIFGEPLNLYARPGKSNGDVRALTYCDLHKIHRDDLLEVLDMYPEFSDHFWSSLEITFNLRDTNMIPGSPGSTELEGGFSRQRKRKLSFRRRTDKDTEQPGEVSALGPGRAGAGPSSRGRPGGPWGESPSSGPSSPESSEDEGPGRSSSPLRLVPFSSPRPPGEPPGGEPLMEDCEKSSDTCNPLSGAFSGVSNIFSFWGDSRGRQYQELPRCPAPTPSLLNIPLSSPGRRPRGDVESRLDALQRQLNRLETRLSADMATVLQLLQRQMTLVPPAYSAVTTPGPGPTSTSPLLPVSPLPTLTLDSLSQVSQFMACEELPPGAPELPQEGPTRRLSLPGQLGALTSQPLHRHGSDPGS

Row | Structure (SMILES) | hERG current change (%, negative = inhibition) at 1uM [%]
1 | COC(=O)c1ccc(-n2nnnc2SCC(=O)NCc2cccc(C(=O)O)c2)cc1 | 7.96
2 | Cc1ccc(NC(=O)CSc2ccc(C(N)=O)cc2[N+](=O)[O-])cc1C | 11.1
3 | CCN(CC)CCn1c(/N=C/c2ccc(OC)c(OC)c2)nc2ccccc21 | -11.1
4 | CCN(CC)C(=O)CC(c1ccc(OC)cc1)c1c(OC)cc(OC)c2ccc(=O)oc12 (stereo not drawn) | 11.6
5 | COC(=O)CN(c1ccccc1)S(=O)(=O)c1ccc(F)cc1 | 15.7
6 | CCN(CC)c1ccc(NC(=O)CSc2n[nH]c(-c3ccco3)n2)cc1 | 0.0263
7 | OCCC1CN(Cc2cccc3nccnc23)CCN1Cc1ccc(F)c(F)c1 (stereo not drawn) | -11.8
8 | CC(C)Oc1ccc(CN2CCCC(CO)(Cc3ccccc3)C2)cc1CO (stereo not drawn) | 3.6
9 | Cc1ccc(C(c2c(C)nn(-c3ccccc3)c2N)c2c(C)nn(-c3ccccc3)c2N)cc1 | 3.47
10 | O=C(CN1CCOCC1)N1CCN(c2nnc(-c3ccccc3)c3ccccc23)CC1 | 11.7
11 | COC(=O)N/N=C/c1cn(CCOc2cccc(OC)c2)c2ccccc12 | 12.1
12 | CC(=O)Cc1nsc(NC(=O)c2csc3c2CCCC3)n1 | -2.69
13 | Cc1ccc(CNC(=O)Cn2ccc3ccccc3c2=O)o1 | 12.9
14 | CCOc1ccc(OCc2nnc(SCC(=O)NC3CCS(=O)(=O)C3)n2-c2ccc(Cl)cc2)cc1 (stereo not drawn) | -7.47
15 | CCc1nc(C)cn1S(=O)(=O)c1ccc(Cl)c(Cl)c1Cl | 3.77
16 | CCOC(=O)C1CCCN(c2cc(NCCCO)c([N+](=O)[O-])c3nonc23)C1 (stereo not drawn) | 3.9
17 | COc1ccccc1C1CC(=O)Nc2c1c(=O)n(C)c(=O)n2C (stereo not drawn) | 12.4
18 | O=C(CNC(=O)c1ccco1)N=Nc1c(O)[nH]c2ccc(Br)cc12 | 15.5
19 | CCOC(=O)N1CCC(N(CCN(C)C)C(=S)Nc2cccc(SC)c2)CC1 | 5.06
20 | CC1=NNC(=O)C1C(c1ccc(F)cc1)C(C#N)C#N (stereo not drawn) | -6.22
21 | Cc1ccc(/C=C/C(=O)OCC(=O)N2CC(=O)Nc3ccccc32)o1 | 5.93
22 | CCCc1ncc(CN2CCCC(C(=O)Nc3ccc(-c4cccc(OC)c4)cc3)C2)cn1 (stereo not drawn) | -1.02

Row | Structure (SMILES) | hERG current change (%, negative = inhibition) at 1uM [%]
23 | CCOc1cc(C2CC(=O)NC(SCC)=C2C#N)ccc1O (stereo not drawn) | 6.68
24 | Cc1oc(/N=C/c2ccccc2O)c(C#N)c1C | 13.3
25 | Cc1cc(C)nc(NC(=O)c2c(F)c(F)c(F)c(C(=O)Nc3cc(C)cc(C)n3)c2F)c1 | 7.91
26 | CCOC(=O)c1[nH]c2ccc(C)cc2c1N=C(C)N(C)C | 5.14
27 | CC1CCc2[nH]c3ccc(C(=O)N(C)CC(=O)Nc4cccc(F)c4)cc3c2C1 (stereo not drawn) | -3.88
28 | CCOc1cc(N2CCOCC2)c(OCC)cc1NC(=O)C1=COCCO1 | 3.4
29 | Cc1cc(Br)ccc1OCCOCCN1CCCC1.O=C(O)C(=O)O | -9.41
30 | Cn1c(SCC2CCCO2)nnc1-c1ccncc1 (stereo not drawn) | 9.85
31 | CCOC(=O)Cn1c(=O)cc(C)c2cccc(C)c21 | 13
32 | CC(=O)N1C(c2ccccc2O)C[C@]2(C)CC(=O)NC12 (stereo partly drawn) | 8.55
33 | CC(C)C(=O)Nc1cccc(NC(=O)c2ccc([N+](=O)[O-])cc2Cl)c1 | 2.88
34 | CCc1noc(C)c1C(=O)OCC(=O)NC(=O)c1ccccc1 | 5.47
35 | O=C(CSCc1nc2ccccc2[nH]1)Nc1ccc2ccccc2c1 | 5.23
36 | Cc1ccc(OCCn2cc(/C=C(\C#N)C(=O)NCC3CCCO3)c3ccccc32)cc1C (stereo not drawn) | 1.61
37 | O=C(CNc1ccccc1F)Nc1cccc2ccccc12 | 7.66
38 | O=C(Nc1nnc(-c2ccncc2)o1)c1cccc(N2C(=O)CCC2=O)c1 | 6.75
39 | C/C(=N\NC(=O)c1ccn[nH]1)c1cn(C)nc1C | 3.79
40 | CC(CC(=O)N1CCN(c2ccccc2)CC1)S(=O)(=O)c1ccc2c(c1)NC(=O)CS2 (stereo not drawn) | 5.7
41 | CCOc1ccccc1C1N=C(c2ccc(OC)cc2)CC(c2ccccc2O)N1 (stereo not drawn) | 7.42
42 | CCOC(=O)C1(N(CC)CC)Sc2cc(C)ccc2NC1=O (stereo not drawn) | 15.3
43 | CC(C)N1CC2=C(C1=O)C(c1ccc(O)cc1)NC(=O)N2C (stereo not drawn) | -4.58
44 | COc1cc(/C=C/C(=O)Nc2nnc(C(C)(C)C)s2)cc(OC)c1OC | 4.71

Row | Structure (SMILES) | hERG current change (%, negative = inhibition) at 1uM [%]
45 | O=C(Nc1ccccc1N1CCCCC1)c1ccc(-c2cccc(Cl)c2)o1 | 22.8
46 | CC(C)CN(C(=O)c1cc2ccccc2o1)c1c(N)n(CC(C)C)c(=O)[nH]c1=O | 11.5
47 | Cc1cc(=O)oc2c1c(C)nn2-c1cccc(Cl)c1 | 6.41
48 | Cc1ccccc1C(=O)NC1CCN(CC(=O)NCc2ccccc2)CC1 | -1.64
49 | COCCCN1C(=O)N(c2ccc(F)cc2)C(=O)C1CC(=O)Nc1ccc(OC)cc1 (stereo not drawn) | 14.8
50 | O=C(Nc1ccc(NC(=O)c2ccccc2Br)cc1)c1ccccc1 | 8.45
51 | NNC(=O)CCc1ccc(S(=O)(=O)N2CCOCC2)cc1 | 10.8
52 | O=C(c1ccccc1)N1CCN(C(=O)c2cc3ccccc3oc2=O)CC1 | 6.86
53 | CC1CNCCN1S(=O)(=O)c1cccc2cnccc12.Cl (stereo not drawn) | 5.37
54 | O=c1c2c(nc3cc(-c4ccc(F)cc4)[nH]n13)CCC2 | 5.2
55 | Cc1ccnc(N2CCC(C(=O)NC3CCCCCC3)CC2)n1 | 4.96
56 | O=C(Nc1ccc(N2CCOCC2)c(S(=O)(=O)Nc2ccc(Cl)cc2)c1)c1cnccn1 | 5.16
57 | O=C(O)CC/C(=N/NC(=O)CNC(=O)c1ccc2c(c1)OCCO2)c1ccccc1 | 20.8
58 | COc1ccc(C(=O)N/N=C2\CCS(=O)(=O)c3ccc(F)cc32)cc1OC | 3.79
59 | O=C(NNC(=S)NC(=O)c1cccs1)c1ccc(O)cc1 | 12.1
60 | CC(C)NC(=O)c1c(CSc2ccccc2)noc1C(=O)NCc1ccccc1 | 6.02
61 | Cc1cccc(NC(=S)NCC(c2cccnc2)N2CCOCC2)c1C (stereo not drawn) | 6.67
62 | O=C(COC(=O)c1cc([N+](=O)[O-])ccc1N1CCOCC1)Nc1c(Cl)cccc1Cl | 8.72
63 | COCCCNC(=O)c1ccccc1SC | 15.7
64 | CCOC(=O)CCN(Cc1cccs1)S(=O)(=O)c1ccc(Cl)cc1 | -17.4
65 | O=C(CS(=O)(=O)c1ccccc1)Nc1ncc([N+](=O)[O-])s1 | 8.32
66 | O=C(NCc1ccco1)c1ccc(N2CCCCC2)c([N+](=O)[O-])c1 | 2.27

Row | Structure (SMILES) | hERG current change (%, negative = inhibition) at 1uM [%]
67 | CCCOc1ccc(C(=O)N2CC3(CC(c4cccc(NC(=O)[C@@H]5CCC(=O)N5)c4)=NO3)C[C@H]2C(=O)NC2(C(N)=O)CC2)cc1 (stereo partly drawn) | 1.17
68 | Cl.O=C(NCC(c1cccs1)N1CCOCC1)c1ccccc1NS(=O)(=O)c1cccc([N+](=O)[O-])c1 (stereo not drawn) | 4.75
69 | COc1cc(OC)cc(C(=O)NC(=S)N2CCCCC2c2cccnc2)c1 (stereo not drawn) | 9.33
70 | C=CCSc1nnc2c(n1)OC=Nc1ccccc1-2 | -1.32
71 | O=C(CSc1nnc(-c2ccncc2)n1Cc1ccccc1)NC1CCCc2ccccc21 (stereo not drawn) | -3.99
72 | C=CCC1(CC=C)CCCN1C(=O)c1cc(COc2ccc(C)nc2)on1 | 4.95
73 | Cc1ccc(-c2nnc(NCc3nc4ccccc4[nH]3)c3ccccc23)cc1S(=O)(=O)N(C)C | 14.9
74 | O=C(CCC(=O)N1CCN(c2cccc(Cl)c2)CC1)N1CCN(c2ccccc2)CC1 | -15.3
75 | O=C(NC(c1ccccc1)c1ccccc1)c1ccc(=O)[nH]n1 | 10.8
76 | CCOC(=O)c1c(S(=O)(=O)NC2CCN(C(=O)OCC)CC2)c(C)n(C)c1C | 8.35
77 | C[C@@H]1NC(=O)/C(=C\c2ccccc2Cl)NC1=O | 11.7
78 | CCN(CC)c1ccc2cc(C#N)c(=O)oc2c1 | 12.2
79 | N#Cc1c(-c2ccc(F)cc2)nc2n(c1=O)CCS2 | 1.87
80 | CC(Oc1ccc(Br)cc1)c1nc2c3ccccc3nc(=S)n2[nH]1 (stereo not drawn) | 12
81 | COC(=O)c1c(C(=O)OC)c2n(c1C)CCC2 | 0.0876
82 | COC(=O)CSc1nc(N2CCOCC2)c2c(c1C#N)CC(C)(C)OC2 | 7.76
83 | CCN(CC)CCCNC(=S)N(Cc1cccnc1)Cc1cc2cccc(C)c2[nH]c1=O | 5.28
84 | O=S(=O)(c1ccc(Cl)cc1)N1CN2CCN(C2)C1 | 11.6
85 | Cc1[nH]c(C)c(S(=O)(=O)N2CCN(c3ccccc3)CC2)c1C(=O)N1CCCC1 | 7.68
86 | Cn1c(=NC(=O)COc2ccccc2)sc2cc(F)cc(F)c21 | 11.9
87 | CCc1ccc(NC(=O)CCc2nnc3ccc(N4CCC5(CC4)OCCO5)nn23)cc1 | 5.95

Source: article PMC4336329 (PLoS ONE, 2015)
